How the values were obtained:
[1] = target: T1, human Trop-2-ECD-6His fusion protein (Homo sapiens, UniProt P09758); test: Antigen binding assay (ELISA) on immobilized Trop-2-ECD-6His
T1 construct: made in house; host or cells: human 293 cell line
T1 sequence (P09758 with tags, fused parts or gaps): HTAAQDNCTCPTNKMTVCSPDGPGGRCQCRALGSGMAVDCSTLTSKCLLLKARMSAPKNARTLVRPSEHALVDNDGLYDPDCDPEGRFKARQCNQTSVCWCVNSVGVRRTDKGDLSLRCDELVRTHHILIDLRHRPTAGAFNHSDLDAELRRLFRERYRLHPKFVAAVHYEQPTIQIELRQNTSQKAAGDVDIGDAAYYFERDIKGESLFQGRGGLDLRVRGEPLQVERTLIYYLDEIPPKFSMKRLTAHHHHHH
Experimental: Using the HCVR sequence and LCVR sequence of mAbs #118-2-5 and #125-1-5, two murine-human chimeric IgG1 (hereinafter “chimeric IgG1”) was prepared which comprised the heavy chain sequences set forth in SEQ ID NOs: 47 and 49, and the light chain sequences set forth in SEQ ID NOs: 48 and 50. Nucleic acids encoded by SEQ ID NO: 19, 20 and SEQ ID NO: 21, 22 were amplified and inserted into pTT5 to make an expression plasmid of the full-length IgG. The heavy chain and light chain expression plasmids were used to co-transfect 100 mL HEK293-6E cells. The recombinant IgG secreted into to media was purified using protein A affinity. The purified IgG migrated as ~150 kDa band in SDS-PAGE under non-reducing conditions, ~55 kDa and ~30 kDA bands under reducing condition. The purity of the chimeric IgG is >90%. The binding affinity between the chimeric IgGs and a human Trop-2-ECD-6His fusion protein (SEQ ID NO:2) was determined by ELISA. The Trop-2-ECD-6His fusion protein was immobilized on the surface of a microplate wells and incubated with the chimeric IgGs. A secondary enzyme-labeled goat-anti-mouse IgG-AP was then added. After washing, the activity of the microplate well-bound enzyme was measured by adding the substrate. Color development and absorbance at 405 nm were read.

[2] = test system: Trop-2 positive breast cancer cell line MDA-MB-468; test: Internalization assay by flow cytometry (Example 2 protocol); assay type: cell-based, human
Experimental: The chimeric IgG1 #118-2-5 and #125-1-5 were further evaluated by internalization assay using Trop-2 positive breast cancer cell line MDA-MB-468. MDA-MB-468 cells were seeded at 1×10^5 cell/well. Next, the chimeric or benchmark IgGs were added to cells in FACS buffer and incubated for 2 hours at 4° C. After incubation, the cells were washed to remove unbound antibody. The cells were then incubated at 37° C. After 2 hours, the cells were dissociated and stained with fluorescent-conjugated […] secondary antibodies for 30 minutes on ice in dark before being analyzed using Beckman flow cytometry system. The fluorescent intensity and cell binding percentage at each time point were analyzed by Beckman flow cytometric software. The amount of chimeric IgGs internalized into cells was determined using the following formula: % internalization rate = 100 × (MFI4°C - MFI37°C) / MFI4°C.

mouse Trop-2-His = target: T2, mouse Trop-2-His (Mus musculus, UniProt Q8BGV3); test: Cross-reactivity ELISA, mouse Trop-2; assay type: binding; conditions: plate coated with 1 µg/mL antigen
T2 sequence (Q8BGV3 25-317): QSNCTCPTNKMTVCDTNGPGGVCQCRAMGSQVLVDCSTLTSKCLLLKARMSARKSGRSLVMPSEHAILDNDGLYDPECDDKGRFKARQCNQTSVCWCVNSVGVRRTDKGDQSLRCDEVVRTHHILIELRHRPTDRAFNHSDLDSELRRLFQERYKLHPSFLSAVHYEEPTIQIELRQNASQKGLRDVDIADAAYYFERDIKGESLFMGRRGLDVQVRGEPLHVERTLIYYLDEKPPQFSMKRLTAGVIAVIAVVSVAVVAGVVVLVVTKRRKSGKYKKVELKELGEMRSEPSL
Experimental: (§1) Cross-reactivity of chimeric IgG #118-2-5 and #125-1-5 to the Trop-2 antigens from different species was assessed by ELISA. In this experiment, a microtiter plate was coated overnight at 4° C. with 50 µL/well of 1 µg/mL human Trop-2ECD-6His, mouse Trop-2-His, cynomolgus Trop-2-His, human EPCAM-His, and a non-related protein. The plate was washed and blocked for 1 hr at 37° C., and then washed with wash buffer. Purified chimeric IgGs appropriately diluted in PBS were added to wells and incubated for 1 hr at 37° C. After washing, bound antibodies were detected using HRP-conjugated goat-anti-human IgG Ab. Color development and absorbance at OD450 nm were read. A non-specific mock mouse IgG and a non-specific mock human IgG were included as the negative controls, while anti-His antibody was used as a positive control.
(§2) The cross-reactivity of purified IgGs to the Trop-2 antigens from different species was tested by ELISA. In this experiment, a microtiter plate was coated overnight at 4° C. with 50 µL/well of 1 µg/mL human Trop-2ECD-6His, mouse Trop-2-His, cynomolgus Trop-2-His, human EPCAM-His, and a non-related protein. The plate was washed and blocked for 1 hr at 37° C., and then washed with wash buffer. […] After washing, bound antibodies were detected using HRP-conjugated goat-anti-human IgG antibody. Color development and absorbance at OD450 nm were read. […]

human Trop-2ECD-6His = target: T3, human Trop-2ECD-6His (Homo sapiens, UniProt P09758); test: Cross-reactivity ELISA, human Trop-2; assay type: binding; conditions: plate coated with 1 µg/mL antigen
T3 construct: made in house; host or cells: human 293 cell line
T3 sequence (P09758 with tags, fused parts or gaps): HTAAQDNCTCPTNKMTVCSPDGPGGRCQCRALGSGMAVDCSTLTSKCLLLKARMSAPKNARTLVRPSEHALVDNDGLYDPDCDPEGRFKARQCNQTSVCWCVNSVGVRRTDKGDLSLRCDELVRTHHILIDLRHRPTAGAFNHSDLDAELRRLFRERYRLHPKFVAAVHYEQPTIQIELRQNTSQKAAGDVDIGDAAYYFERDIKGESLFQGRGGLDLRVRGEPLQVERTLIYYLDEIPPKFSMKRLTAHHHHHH
Experimental: as §1, §2

human EPCAM-His = target: T4, human EPCAM-His (Homo sapiens, UniProt P16422); test: Cross-reactivity ELISA, human EPCAM; assay type: binding; conditions: plate coated with 1 µg/mL antigen
T4 sequence (P16422 24-314): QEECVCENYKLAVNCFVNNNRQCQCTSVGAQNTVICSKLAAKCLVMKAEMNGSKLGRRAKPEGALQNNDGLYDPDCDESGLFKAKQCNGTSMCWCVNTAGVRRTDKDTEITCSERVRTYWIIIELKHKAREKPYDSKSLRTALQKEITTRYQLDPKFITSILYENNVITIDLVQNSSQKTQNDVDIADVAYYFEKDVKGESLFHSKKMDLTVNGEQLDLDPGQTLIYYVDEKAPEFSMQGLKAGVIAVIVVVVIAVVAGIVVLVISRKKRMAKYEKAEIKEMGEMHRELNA
Experimental: as §1, §2

non-related protein = test: Cross-reactivity ELISA, non-related protein; assay type: binding; conditions: plate coated with 1 µg/mL protein
Experimental: as §1, §2

cynomolgus Trop-2-His = test: Cross-reactivity ELISA, cynomolgus Trop-2; assay type: binding; conditions: plate coated with 1 µg/mL antigen
Experimental: as §1, §2

- OD value, Conditioned Medium 1 to 1 ratio ([1]; Table 3, ELISA absorbance at 405 nm, 1 to 1 ratio): 1.996
- OD value, Conditioned Medium 1 to 10 ratio ([1]; Table 3, ELISA absorbance at 405 nm, 1 to 10 ratio): 2.032
- recognition of mouse Trop-2 (ELISA, OD450 nm) (mouse Trop-2-His): did not recognize
- binding to human Trop-2 antigen (ELISA, OD450 nm) (human Trop-2ECD-6His): able to bind
- recognition of hEPCAM (ELISA, OD450 nm) (human EPCAM-His): did not recognize
- binding to cynomolgus Trop-2 antigen (ELISA, OD450 nm) (cynomolgus Trop-2-His): able to bind
B1: #118-2-5: murine mAb (VH SEQ ID NO: 15, VL 17) tested as murine-human chimeric IgG1, HC SEQ ID NO: 47, LC 48 (antibody)
heavy: QVQLKQSGPGLVAPSQSLSITCTVSGFSLTSYGVNWIRQPPGKGLEWLGVMWAGGSTNYNSALMSRLSISKDNSKSQVFLKMNSLQTDDTGMYYCARDENWDGAWFAYWGQGTLVTVSASTKGPSVFPLAPSSKSTSGGTAALGCLVKDYFPEPVTVSWNSGALTSGVHTFPAVLQSSGLYSLSSVVTVPSSSLGTQAYICNVNHKPSNTKVDKKVG[left out - human IgG1 Fc with K334R T359A (EU numbers)]
light: DIQMTQSPSSLAVSAGEKVTMSCKSSQSLLNSGTRKNYLAWYQQKPGQSPKLLISWASSRESGVPDRFTGSGSGTDFTLTISSVQAEDLAVYYCKQSYNLFTFGGGTKLELKRTVAAPSVFIFPPSDEQLKSGTASVVCLLNNFYPREAKVQWKVDNALQSGNSQESVTEQDSKDSTYSLSSTLTLSKADYEKHKVYACEVTHQGLSSPVTKSFNRGEC
- binding affinity to Trop 2 compared with benchmark hRS7 ([1]; in words, chimeric IgGs, see OD value in Table 3): higher binding affinity than the benchmark reference antibody hRS7
- Internalization Rate ([2]; Table 4, chimeric IgGs, 2 hours at 37° C., 100 × (MFI4°C - MFI37°C) / MFI4°C): 40.44%
- internalization rate compared with benchmark IgG ([2]; in words, chimeric IgG): much better internalization rate than the benchmark IgG
- recognition of the non-related protein (ELISA, OD450 nm) (non-related protein): did not recognize

— patent US20230235080A1, “TROPHOBLAST CELL-SURFACE ANTIGEN-2 (TROP-2) ANTIBODIES” (Bionecure Therapeutics, Inc., priority 2020, published 2023)
